Source: PubChem BioAssay AID1030 (National Center for Advancing Translational Sciences (NCATS), 2008)
Out of some 220,000 compounds screened, about 16,000 (7.3%) were called active. Inconclusive means that the source gave no clear call. Such entries were picked first, then a sample of the others. The call rests on the fitted dose curve; in most records, active means well fitted inhibition curve with a large enough effect (not every such curve was filed as active); inconclusive means small, poorly fitted or top-dose-only effect, or another doubt; inactive means no such curve, though single readings can be large or run the other way. No potency is given beside an inconclusive call; the fits are too rough.

Each compound was assayed against Aldehyde dehydrogenase 1A1 (Homo sapiens) (UniProt P00352) (assay: qHTS Assay for Inhibitors of Aldehyde Dehydrogenase 1 (ALDH1A1)). Details: Purified ALDH1A1, NADH fluorescence, propionaldehyde substrate; series mostly up to 75.3 µM; activity, negative = inhibition: at the top concentration.
Potency means the concentration at half of the fitted maximal effect; tags describe the fitted curve by direction and shape.
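Wherever activity, negative = inhibition is given: plate controls were no enzyme wells and a reference inhibitor.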

UniProt P00352, sequence (P00352 whole entry, looked up): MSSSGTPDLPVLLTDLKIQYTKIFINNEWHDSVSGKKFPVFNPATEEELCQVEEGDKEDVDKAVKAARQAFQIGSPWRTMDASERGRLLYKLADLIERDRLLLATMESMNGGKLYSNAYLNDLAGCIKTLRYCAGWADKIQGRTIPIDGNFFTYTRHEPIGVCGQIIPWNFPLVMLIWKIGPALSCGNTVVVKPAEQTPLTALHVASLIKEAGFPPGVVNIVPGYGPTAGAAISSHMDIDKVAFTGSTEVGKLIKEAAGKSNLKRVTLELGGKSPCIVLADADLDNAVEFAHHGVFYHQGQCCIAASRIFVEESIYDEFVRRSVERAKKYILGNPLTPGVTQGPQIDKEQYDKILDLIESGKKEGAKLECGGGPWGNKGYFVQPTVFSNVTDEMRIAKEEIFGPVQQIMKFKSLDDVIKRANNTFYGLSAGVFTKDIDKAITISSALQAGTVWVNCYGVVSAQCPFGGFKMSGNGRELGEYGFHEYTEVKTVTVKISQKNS

SMILES	Potency	activity, negative = inhibition
Cc1cc(C)cc(OP(=O)(Oc2cc(C)cc(C)c2)Oc2cc(C)cc(C)c2)c1	inconclusive [inhibitor, single point]	–
O=c1[nH]c(=S)n(C2CC2)c(O)c1C=NCCc1ccccc1	inconclusive [inhibitor, full curve]	–
CC1O[C@@H](Oc2c(-c3ccc(O)c(O)c3)oc3cc(O)cc(O)c3c2=O)C(O)C(O)C1O (stereo partly specified)	inconclusive [inhibitor, single point]	–
c1ccc(C[C@@H](c2ccccc2)N2CCCCC2)cc1	–	inactive: 3.7%
CCC(C)C(=O)O[C@@H]1C[C@@]2(C)C(c3ccoc3)OC(=O)CC23OC2(C)O[C@@]14[C@@]1(C)C(CC(=O)OC)C5(C)CC1(O)C(O)(C5OC(=O)C1(C)OC1C)C(OC(C)=O)[C@@]34O2 (stereo partly specified)	–	inactive: 2.69%
C=CCn1c(O)c(C(C)=NCCO)c(=O)[nH]c1=O	–	inactive: 15.6%
CC(=O)Nc1ccc(C2CN(C)CC2C(=O)c2ccc(Cl)cc2)cc1 (stereo unspecified)	inconclusive [inhibitor, single point]	–
C[C@H]1CCCC(=O)CCCCCc2cc(O)cc(O)c2C(=O)O1	inconclusive [inhibitor, single point]	–
CCBr	inconclusive [inhibitor, single point]	–
CCNc1cc(N2CCNCC2)ccc1[N+](=O)[O-]	inconclusive [inhibitor, single point]	–
COC(=O)c1ccc(NC(=O)CSc2nc3ccc(N4C(=O)C5C6C=CC(C6)C5C4=O)cc3s2)cc1 (stereo unspecified)	inconclusive [inhibitor, single point]	–
CC(C)CON=O	active: 31.6 µM	–
CC(C)(C)P(=O)(NCc1ccccc1)c1ccccc1 (stereo unspecified)	–	inactive: 1.93%
Cc1ccc(-c2cn3c(=S)[nH]nc3s2)cc1	inconclusive [inhibitor, single point]	–
CSCC[C@@H](N)P(C)(=O)O	–	inactive: 4.92% [at 13.5 µM]
COc1ccccc1CCNCc1ccc(OC)c(OC)c1OC	inconclusive [inhibitor, single point]	–
c1ccc(C2CO2)cc1 (stereo unspecified)	–	inactive: 6.38%
Clc1ccc(COC(Cn2ccnc2)c2ccc(Cl)cc2Cl)cc1 (stereo unspecified)	inactive	–
NC(=O)CSc1nnc([C@@H](N)Cc2c[nH]c3ccccc23)o1	inconclusive [inhibitor, partial curve]	–
CCCCCCCCCOc1ccc2[nH]cc(CCN)c2c1	inactive	–
c1cnc(N2CCC3(CCNCC3)CC2)nc1	–	inactive: -16.2%
O=c1[nH]c(=O)n(CC2CCCO2)c(O)c1/C=C1\C=Nc2ccccc21 (stereo unspecified)	active: 14.1 µM	–
FC(F)(F)c1ccc2c(c1)nnn2C1CCN(Cc2nnnn2Cc2ccccc2)CC1	inconclusive [inhibitor, single point]	–
CCCCC/C=C\C/C=C\C/C=C\C/C=C\CCCC(N)=O	inactive	–
CCn1c(O)c(/C=N/NC(=O)c2ccncc2)c(=O)n(CC)c1=S	inconclusive [inhibitor, partial curve]	–
CCOC(=O)c1ccc(N=C(c2ccccc2)c2c(O)n(C)c(=O)n(C)c2=O)cc1	inconclusive [inhibitor, single point]	–

SMILES	Potency	activity, negative = inhibition
CCOP(=O)(OCC)c1nc(-c2ccc(C)cc2)oc1NCc1ccccc1	inconclusive [inhibitor, partial curve]	–
CN(C)CS/C(N)=N/[C@H](O)C(Cl)(Cl)Cl	active: 3.16 µM	–
Cc1cccc(OCC(=O)N2CCN(Cc3ccncc3)CC2)c1	inconclusive [inhibitor, single point]	–
NC[C@H](CP(=O)(O)O)c1ccc(Cl)cc1	–	inactive: 4.92%
CN1C(=O)NC(=O)[C@]2(Cc3ccccc3N3CCN(c4ccccc4)CC32)C1=O (stereo partly specified)	active: 25.1 µM	–
O=C(CNC(=O)c1ccc(Br)cc1)NCC(=O)OCC(=O)c1ccc([N+](=O)[O-])cc1	active: 1 µM	–
c1ccc(CCn2nnnc2CN2CCC(n3nnc4ccccc43)CC2)cc1	–	inactive: -1.83%
Cc1ccccc1Cc1c(C)nc2nc(SCC(=O)N3CCC4(CC3)OCCO4)nn2c1C	–	inactive: 1.89%
CC1OC(OC2C(O)CC(OC3C(O)CC(OC4CCC5(C)C(CCC6C5CCC5(C)C(C7=CC(=O)OC7)CCC65O)C4)OC3C)OC2C)CC(O)C1O (stereo unspecified)	–	inactive: 2.97%
Cc1cc(OC(=O)CCCNC(=O)OC(C)(C)C)c2c3c(c(=O)oc2c1)CCC3	inconclusive [inhibitor, partial curve]	–
C[C@]1(C(=O)O)CCC[C@]2(C)c3cc(O)ccc3CC[C@@H]12	–	inactive: 2.14%
c1ccc(-c2ccccc2)cc1	inconclusive [inhibitor, single point]	–
C=C(C)C#N	–	inactive: -8%
CN1CCC2(CC1)C(C#N)=C(N)NC(S)=C2C#N	inconclusive [inhibitor, partial curve]	–
COCCn1c(SCc2ccccc2Cl)nc2c1c(=O)[nH]c(=O)n2C	active: 14.1 µM	–
Cc1c(C=O)c2ccccc2n1Cc1ccccc1F	inconclusive [inhibitor, single point]	–
COc1ccc(N=Cc2c(O)n(Cc3cccs3)c(=O)[nH]c2=O)cc1	inconclusive [inhibitor, single point]	–
COC(=O)C(O)(c1c(C)[nH]n(-c2ccccc2)c1=O)C(F)(F)F (stereo unspecified)	inconclusive [inhibitor, partial curve]	–
CCC(C)n1c(C)cc(C(N)=O)c1C (stereo unspecified)	–	inactive: 5.68%
CN1C2CCC1CC(OC(=O)c1ccc(Cl)cc1)(C(=O)O)C2 (stereo unspecified)	–	inactive: 5.57%
CNCCc1c(C)n[nH]c1C	–	inactive: -8.45%
CCCCC(CC)COC(=O)c1ccc(C(=O)OCC(CC)CCCC)c(C(=O)OCC(CC)CCCC)c1 (stereo unspecified)	inconclusive [inhibitor, single point]	–
OCC(Br)CBr (stereo unspecified)	inconclusive [inhibitor, single point]	–
COc1c(C)cc(C(=O)C2CCCN(Cc3ccccn3)C2)cc1C (stereo unspecified)	active: 31.6 µM	–
CCN1CCN(Cc2cccc(Oc3ccccc3)c2)CC1	inconclusive [inhibitor, single point]	–
